Results reported in the supplement of paper PMC12458215.
± gives the uncertainty stated by the source.

System: HEK293T
Test: plasma membrane surface immunostaining intensity (anti-HA, deep receptor scanning) (arbitrary fluorescence units); higher = higher plasma membrane expression
Conditions: GPCR class: A

Compared with “MALSYRVSELQSTIPEHILQSTFVHVISSNWSGLQTESIPEEMKQIVEEQGNKLHWAALLILMVIIPTIGGNTLVILAVSLEKKLQYATNYFLMSLAVADLLVGLFVMPIALLTIMFEAMWPLPLVLCPAWLFLDVLFSTASIMHLCAISVDRYIAIKKPIQANQYNSRATAFIKITVVWLISIGIAIPVPIKGIETDVDNPNNITCVLTKERFGDFMLFGSLAAFFTPLAIMIVTYFLTIHALQKKAYLVKNKPPQRLTWLTVSTVFQRDETPCSSPEKVAMLDGSRKDKALPNSGDETLMRRTSTIGKKSVQTISNEQRASKVLGIVFFLFLLMWCPFFITNITLVLCDSCNQTTLQMLLEIFVWIGYVSSGVNPLVYTLFNKTFRDAFGRYITCNYRATKSVKTLRKRSSKIYFRNPMAENSKFFKKHGIRNGINPAMYQSPMRLRSSTIQSSSIILLDTLLLTENEGDKTEEQVSYV [HTR2B]”, “MANYSHAADNILQNLSPLTAFLKLTSLGFIIGVSVVGNLLISILLVKDKTLHRAPYYFLLDLCCSDILRSAICFPFVFNSVKNGSTWTYGTLTCKVIAFLGVLSCFHTAFMLFCISVTRYLAIAHHRFYTKRLTFWTCLAVICMVWTLSVAMAFPPVLDVGTYSFIREEDQCTFQHRSFRANDSLGFMLLLALILLATQLVYLKLIFFVHDRRKMKPVQFVAAVSQNWTFHGPGASGQAAANWLAGFGRGPTPPTLLGIRQNANTTGRRRLLVLDEFKMEKRISRMFYIMTFLFLTLWGPYLVACYWRVFARGPVVPGGFLTAAVWMSFAQAGINPFVCIFSNRELRRCFSTTLLYCRKSRLPREPYCVI [GPR85]” is higher in “plasma membrane surface immunostaining intensity” value: 218 ± 39 for the first, 652 ± 190 for the second.

Compared with “MLANSSSTNSSVLPCPDYRPTHRLHLVVYSLVLAAGLPLNALALWVFLRALRVHSVVSVYMCNLAASDLLFTLSLPVRLSYYALHHWPFPDLLCQTTGAIFQMNMYGSCIFLMLINVDRYAAIVHPLRLRHLRRPRVARLLCLGVWALILVFAVPAARVHRPSRCRYRDLEVRLCFESFSDELWKGRLLPLVLLAEALGFLLPLAAVVYSSGRVFWTLARPDATQSQRRRKTVRLLLANLVIFLLCFVPYNSTLAVYGLLRSKLVAASVPARDRVRGVLMVMVLLAGANCVLDPLVYYFSAEGFRNTLRGLGTPHRARTSATNGTRAALAQSERSAVTTDATRPDAASQGLLRPSDSHSLSSFTQCPQDSAL [LPAR5]”, “MDMLHPSSVSTTSEPENASSAWPPDATLGNVSAGPSPAGLAVSGVLIPLVYLVVCVVGLLGNSLVIYVVLRHTASPSVTNVYILNLALADELFMLGLPFLAAQNALSYWPFGSLMCRLVMAVDGINQFTSIFCLTVMSVDRYLAVVHPTRSARWRTAPVARTVSAAVWVASAVVVLPVVVFSGVPRGMSTCHMQWPEPAAAWRAGFIIYTAALGFFGPLLVICLCYLLIVVKVRSAGRRVWAPSCQRRRRSERRVTRMVVAVVALFVLCWMPFYVLNIVNVVCPLPEEPAFFGLYFLVVALPYANSCANPILYGFLSYRFKQGFRRVLLRPSRRVRSQEPTVGPPEKTEEEDEEEEDGEESREGGKGKEMNGRVSQITQPGTSGQERPPSRVASKEQQLLPQEASTGEKSSTMRISYL [SSTR3]” is higher in “plasma membrane surface immunostaining intensity” value: 1080 ± 34 for the first, 6503 ± 49 for the second.

First: MEPHDSSHMDSEFRYTLFPIVYSIIFVLGVIANGYVLWVFARLYPCKKFNEIKIFMVNLTMADMLFLITLPLWIVYYQNQGNWILPKFLCNVAGCLFFINTYCSVAFLGVITYNRFQAVTRPIKTAQANTRKRGISLSLVIWVAIVGAASYFLILDSTNTVPDSAGSGNVTRCFEHYEKGSVPVLIIHIFIVFSFFLVFLIILFCNLVIIRTLLMQPVQQQRNAEVKRRALWMVCTVLAVFIICFVPHHVVQLPWTLAELGFQDSKFHQAINDAHQVTLCLLSTNCVLDPVIYCFLTKKFRKHLTEKFYSMRSSRKCSRATTDTVTEVVVPFNQIPGNSLKN [PTAFR]
Second: MNITNCTTEASMAIRPKTITEKMLICMTLVVITTLTTLLNLAVIMAIGTTKKLHQPANYLICSLAVTDLLVAVLVMPLSIIYIVMDRWKLGYFLCEVWLSVDMTCCTCSILHLCVIALDRYWAITNAIEYARKRTAKRAALMILTVWTISIFISMPPLFWRSHRRLSPPPSQCTIQHDHVIYTIYSTLGAFYIPLTLILILYYRIYHAAKSLYQKRGSSRHLSNRSTDSQNSFASCKLTQTFCVSDFSTSDPTTEFEKFHASIRIPPFDNDLDHPGERQQISSTRERKAARILGLILGAFILSWLPFFIKELIVGLSIYTVSSEVADFLTWLGYVNSLINPLLYTSFNEDFKLAFKKLIRCREHT [HTR1E]
The “plasma membrane surface immunostaining intensity” value of the first is lower: 5500 ± 180 for the first, 6410 ± 86 for the second.

Compared with “MWSCSWFNGTGLVEELPACQDLQLGLSLLSLLGLVVGVPVGLCYNALLVLANLHSKASMTMPDVYFVNMAVAGLVLSALAPVHLLGPPSSRWALWSVGGEVHVALQIPFNVSSLVAMYSTALLSLDHYIERALPRTYMASVYNTRHVCGFVWGGALLTSFSSLLFYICSHVSTRALECAKMQNAEAADATLVFIGYVVPALATLYALVLLSRVRREDTPLDRDTGRLEPSAHRLLVATVCTQFGLWTPHYLILLGHTVIISRGKPVDAHYLGLLHFVKDFSKLLAFSSSFVTPLLYRYMNQSFPSKLQRLMKKLPCGDRHCSPDHMGVQQVLA [GPR146]”, “MYNGSCCRIEGDTISQVMPPLLIVAFVLGALGNGVALCGFCFHMKTWKPSTVYLFNLAVADFLLMICLPFRTDYYLRRRHWAFGDIPCRVGLFTLAMNRAGSIVFLTVVAADRYFKVVHPHHAVNTISTRVAAGIVCTLWALVILGTVYLLLENHLCVQETAVSCESFIMESANGWHDIMFQLEFFMPLGIILFCSFKIVWSLRRRQQLARQARMKKATRFIMVVAIVFITCYLPSVSARLYFLWTVPSSACDPSVHGALHITLSFTYMNSMLDPLVYYFSSPSFPKFYNKLKICSLKPKQPGHSKTQRPEEMPISNLGRRSCISVANSFQSQSDGQWDPHIVEWH [HCAR1]” is higher in “plasma membrane surface immunostaining intensity” value: 210 ± 16 for the first, 6459 ± 51 for the second.

First: MGNASNDSQSEDCETRQWLPPGESPAISSVMFSAGVLGNLIALALLARRWRGDVGCSAGRRSSLSLFHVLVTELVFTDLLGTCLISPVVLASYARNQTLVALAPESRACTYFAFAMTFFSLATMLMLFAMALERYLSIGHPYFYQRRVSRSGGLAVLPVIYAVSLLFCSLPLLDYGQYVQYCPGTWCFIRHGRTAYLQLYATLLLLLIVSVLACNFSVILNLIRMHRRSRRSRCGPSLGSGRGGPGARRRGERVSMAEETDHLILLAIMTITFAVCSLPFTIFAYMNETSSRKEKWDLQALRFLSINSIIDPWVFAILRPPVLRLMRSVLCCRISLRTQDATQTSCSTQSDASKQADL [PTGER2]
Second: MDTTMEADLGATGHRPRTELDDEDSYPQGGWDTVFLVALLLLGLPANGLMAWLAGSQARHGAGTRLALLLLSLALSDFLFLAAAAFQILEIRHGGHWPLGTAACRFYYFLWGVSYSSGLFLLAALSLDRCLLALCPHWYPGHRPVRLPLWVCAGVWVLATLFSVPWLVFPEAAVWWYDLVICLDFWDSEELSLRMLEVLGGFLPFLLLLVCHVLTQATACRTCHRQQQPAACRGFARVARTILSAYVVLRLPYQLAQLLYLAFLWDVYSGYLLWEALVYSDYLILLNSCLSPFLCLMASADLRTLLRSVLSSFAAALCEERPGSFTPTEPQTQLDSEGPTLPEPMAEAQSQMDPVAQPQVNPTLQPRSDPTAQPQLNPTAQPQSDPTAQPQLNLMAQPQSDSVAQPQADTNVQTPAPAASSVPSPCDEASPTPSSHPTPGALEDPATPPASEGESPSSTPPEAAPGAGPT [GPR152]
The “plasma membrane surface immunostaining intensity” value of the first is higher: 6315 ± 36 for the first, 284 ± 16 for the second.

Same assay, conditions: GPCR class: B

With “MQPSPPPTELVPSERAVVLLSCALSALGSGLLVATHALWPDLRSRARRLLLFLSLADLLSAASYFYGVLQNFAGPSWDCVLQGALSTFANTSSFFWTVAIALYLYLSIVRAARGPRTDRLLWAFHVVSWGVPLVITVAAVALKKIGYDASDVSVGWCWIDLEAKDHVLWMLLTGKLWEMLAYVLLPLLYLLVRKHINRAHTALSEYRPILSQEHRLLRHSSMADKKLVLIPLIFIGLRVWSTVRFVLTLCGSPAVQTPVLVVLHGIGNTFQGGANCIMFVLCTRAVRTRLFSLCCCCCSSQPPTKSPAGTPKAPAPSKPGESQESQGTPGELPST [GPR157]” the “plasma membrane surface immunostaining intensity” value was 2320 ± 310.

Same assay, conditions: GPCR class: C

In the case of “MPGKRGLGWWWARLPLCLLLSLYGPWMPSSLGKPKGHPHMNSIRIDGDITLGGLFPVHGRGSEGKPCGELKKEKGIHRLEAMLFALDRINNDPDLLPNITLGARILDTCSRDTHALEQSLTFVQALIEKDGTEVRCGSGGPPIITKPERVVGVIGASGSSVSIMVANILRLFKIPQISYASTAPDLSDNSRYDFFSRVVPSDTYQAQAMVDIVRALKWNYVSTVASEGSYGESGVEAFIQKSREDGGVCIAQSVKIPREPKAGEFDKIIRRLLETSNARAVIIFANEDDIRRVLEAARRANQTGHFFWMGSDSWGSKIAPVLHLEEVAEGAVTILPKRMSVRGFDRYFSSRTLDNNRRNIWFAEFWEDNFHCKLSRHALKKGSHVKKCTNRERIGQDSAYEQEGKVQFVIDAVYAMGHALHAMHRDLCPGRVGLCPRMDPVDGTQLLKYIRNVNFSGIAGNPVTFNENGDAPGRYDIYQYQLRNDSAEYKVIGSWTDHLHLRIERMHWPGSGQQLPRSICSLPCQPGERKKTVKGMPCCWHCEPCTGYQYQVDRYTCKTCPYDMRPTENRTGCRPIPIIKLEWGSPWAVLPLFLAVVGIAATLFVVITFVRYNDTPIVKASGRELSYVLLAGIFLCYATTFLMIAEPDLGTCSLRRIFLGLGMSISYAALLTKTNRIYRIFEQGKRSVSAPRFISPASQLAITFSLISLQLLGICVWFVVDPSHSVVDFQDQRTLDPRFARGVLKCDISDLSLICLLGYSMLLMVTCTVYAIKTRGVPETFNEAKPIGFTMYTTCIVWLAFIPIFFGTSQSADKLYIQTTTLTVSVSLSASVSLGMLYMPKVYIILFHPEQNVPKRKRSLKAVVTAATMSNKFTQKGNFRPNGEAKSELCENLEAPALATKQTYVTYTNHAI [GRM4]”, the “plasma membrane surface immunostaining intensity” value is reported as 6340 ± 76.

Same assay, conditions: GPCR class: Unknown

With “MASPRLGTFCCPTRDAATQLVLSFQPRAFHALCLGSGGLRLALGLLQLLPGRRPAGPGSPATSPPASVRILRAAAACDLLGCLGMVIRSTVWLGFPNFVDSVSDMNHTEIWPAAFCVGSAMWIQLLYSACFWWLFCYAVDAYLVIRRSAGLSTILLYHIMAWGLATLLCVEGAAMLYYPSVSRCERGLDHAIPHYVTMYLPLLLVLVANPILFQKTVTAVASLLKGRQGIYTENERRMGAVIKIRFFKIMLVLIICWLSNIINESLLFYLEMQTDINGGSLKPVRTAAKTTWFIMGILNPAQGFLLSLAFYGWTGCSLGFQSPRKEIQWESLTTSAAEGAHPSPLMPHENPASGKVSQVGGQTSDEALSMLSEGSDASTIEIHTASESCNKNEGDPALPTHGDL [GPR143]” the “plasma membrane surface immunostaining intensity” value was 127 ± 18.
